From patent publication US20230035169A1 (WUXI BIOLOGICS IRELAND, published 2023) come the findings set out here.

One experiment has as its target Human TGF-β1 (human, UniProt P01137 fragment). Put plainly: cell-based or functional assay.
Experiment [1] has as its target T1, Human PD-L1 on cells (W315-CHO-K1.hPro1.C11) (human, UniProt Q9NZQ7). As to the kind of experiment: cell-based or functional assay.
Experiment [2] has as its target T2, Cynomolgus monkey (cyno) PD-L1 ECD antigen His tagged (cynomolgus monkey, UniProt G7PSE7 19-238).
T2 construct: Bought
Put plainly: SPR (Biacore 8K), antibody captured on anti-human IgG Fc chip, PD-L1 as analyte, 1:1 model. As to the method: (§1) Antibody was captured on an anti-human IgG Fc antibody immobilized CM5 sensor chip (GE). Human or cyno PD-L1 at different concentrations were injected over the sensor chip at a flow rate of 30 μL/min for an association phase of 180 s, followed by 3600 s dissociation. […] The chip was regenerated by 10 mM glycine (pH 1.5) after each binding cycle.
(§2) The sensorgrams of blank surface and buffer channel were subtracted from the test sensorgrams. […] The experimental data was fitted by 1:1 model using Langmiur analysis. Molecular weight of 40 kDa was used to calculate the molar concentration of human, mouse and cyno PD-L1.

Experiment [3] has as its target T3, Human PD-L1 extracellular domain (ECD) antigen His tagged (human, UniProt Q9NZQ7 fragment).
T3 construct: extracellular domain; Bought; Biotinylated when used as the detecting reagent in the dual target ELISA; also called human PD-L1 ECD protein; not shown: His tag
Described as above. On the procedure:
as §1, §2

Experiment [4] deals with T4, Cynomolgus monkey PD-L1 on cells (W315-293F.cynoPro1.2A2) (cynomolgus monkey, UniProt G7PSE7 19-290).
T4 construct: also called cell surface cyno PD-L1
As to the kind of experiment: FACS on cyno PD-L1 expressing 293F cells. On the procedure: (§3) MFI of the cells was measured by a flow cytometer and analyzed by FlowJo.

The target in experiment [5] is T1, Human PD-L1 on cells …. As to the kind of experiment: FACS on human PD-L1 expressing CHO-K1 cells. As to the method:
After washing, the cells were incubated with PE-labeled goat anti-human IgG-Fc antibody (Jackson Immuno Research). Finally, the MFI of the cells was measured by a flow cytometer and analyzed by FlowJo.

Experiment [6] concerns the target T5, Mouse PD-L1 ECD antigen His tagged (mouse, UniProt Q9EP73 fragment).
T5 construct: extracellular domain; Bought; not shown: His tag
Put plainly: SPR (Biacore 8K), antibody captured on anti-human IgG Fc chip, PD-L1 as analyte, 1:1 model, 0-300 s fitted. As to the method:
as §1, §2

Experiment [7] concerns the target T6, Mouse PD-L1 on cells (W315-293F.mPro1.C1) (mouse, UniProt Q9EP73).
T6 construct: whole, on cells; also called cell surface mouse PD-L1
As to the kind of experiment: FACS on mouse PD-L1 expressing 293F cells. On the procedure: as §3

Sequence of Human TGF-β1 (P01137 279-390 limits assumed): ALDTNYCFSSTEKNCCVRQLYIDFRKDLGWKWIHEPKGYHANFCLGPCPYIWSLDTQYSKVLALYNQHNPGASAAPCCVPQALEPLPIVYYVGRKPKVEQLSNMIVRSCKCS

B1: WT1126-U15T1.G1-1.uIgG1 (bispecific antibody)
chain: EVQLVESGGGLVQPGGSLRLSCAASGHFSNLAVNWFRQAPGKERELVAGILWSGGSTFYADSVKGRFTISRGNAENMLYLQMNSLRAEDTAVYYCNTGTNWGQGTLVTVSS[sequence of human IgG1 Fc not given]GGGSGGGGSGGGGSGGGGSIPPHVQKSVNNDMIVTDNNGAVKFPQLCKFCDVRFSTCDNQKSCMSNCSITSICEKPQEVCVAVWRKNDENITLETVCHDPKLPYHDFILEDAASPKCIMKEKKKPGETFFMCSCSSDECNDNIIFSEEYNTSNPD
notes: Anti-PD-L1 VHH-Fc (human IgG1) fused at the C-terminus of the Fc to the TGFbRII ECD, no light chain; also called WT1126-U15T1.G1.uIgG1; WT1126-U15T1.1.uIgG1
Consider B1, for which the “TGF-β1 blockade IC50, SBE luciferase reporter gene assay” value with Human TGF-β1 stood at 0.7 nM. Further, in experiment [1], the “hPD-1/PD-L1 signaling blockade IC50, NFAT luciferase reporter gene assay (PD-1 Jurkat cells with PD-L1 artificial APC)” value came out at 0.28 nM. Besides, the dissociation constant Kd (usually the concentration at which binding is half-saturated) in experiment [2] came out at 0.461 nM; in experiment [3], 0.267 nM; in experiment [6], 41.9 nM. The koff (as a rule, the rate constant with which the complex falls apart) in experiment [2] was 0.000465 s⁻¹; in experiment [3], 0.000307 s⁻¹; in experiment [6], 0.0108 s⁻¹. The values for the kon in experiment [2], in experiment [3] and in experiment [6] were 1.01e+06 M⁻¹ s⁻¹, 1.15e+06 M⁻¹ s⁻¹ and 258000 M⁻¹ s⁻¹, respectively. In addition, the EC50 (in general, the concentration giving half of the maximal effect) in experiment [4] came out at 0.63 nM; in experiment [5], 0.14 nM; in experiment [7] it was 0.71 nM.
